# Laboratory results reported in the supplement of paper PMC10037445.
# In all, about 2,900 compounds were measured (“NF-kB SEAP reporter activity, fold change vs agonist alone”: median about 0.99, highest 2% from about 2.6 on). This is one part of the list.
# Experiments:
# RAW-Dual [1] = experiment: NF-kB SEAP reporter activity, fold change vs agonist alone; cytotoxicity flag (confluency mask): not cytotoxic; higher = enhanced NF-kB activity
# Summary of the method: (§1)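 RAW-Dual macrophages (50,000 cells/well in DMEM, 384-well plates) received 50 nL of library stock by pin tool, then a PRR agonist 1 h later, and were kept at 37 °C, 5% CO2. After 20 hours, supernatant was read for IRF by QuantiLuc luminescence and for NF-κB by QuantiBlue absorbance at 620 nm. Reporter activity is fold change over agonist-alone wells. Cytotoxic wells had IncuCyte confluency below 70% of agonist controls in both mask sets.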
# RAW-Dual [2] = experiment: NF-kB SEAP reporter activity, fold change vs agonist alone; higher = enhanced NF-kB activity; conditions: library stock concentration (final ~1000-fold dilution): 10 mM
# Summary of the method: as §1
# RAW-Dual [3] = experiment: NF-kB SEAP reporter activity, fold change vs agonist alone; cytotoxicity flag (confluency mask): cytotoxic (confluency <70% of control); higher = enhanced NF-kB activity
# Summary of the method: as §1
# [4] = agonist: ODN 1826 (TLR9) 0.5 ug/mL
# [5] = agonist: Pam2CSK4 (TLR2/6) 0.1 ug/mL
# [6] = agonist: Pam3CSK4 (TLR2/1) 0.1 ug/mL
# [7] = cytotoxicity flag (confluency mask): not cytotoxic, agonist: Imiquimod (TLR7) […]
# [8] = cytotoxicity flag (confluency mask): not cytotoxic, agonist: MPLA (TLR4) […]
smiles,measurement,setting,value
CCOc1nc2cccc(C(=O)O)c2n1Cc1ccc(-c2ccccc2-c2nc(=O)o[nH]2)cc1 (library stock concentration (final ~1000-fold dilution): 10 mM),NF-kB SEAP reporter activity,RAW-Dual [1]; agonist: LPS (TLR4) 0.1 ug/mL,1.38
same,NF-kB SEAP reporter activity,RAW-Dual [1]; [4],1.05
same,NF-kB SEAP reporter activity,RAW-Dual [1]; [5],1.2
same,NF-kB SEAP reporter activity,RAW-Dual [1]; [6],1.05
CCOc1nc2cccc(C(=O)O)c2n1Cc1ccc(-c2ccccc2-c2nc(=O)o[nH]2)cc1,NF-kB SEAP reporter activity,RAW-Dual [2]; [7],0.995
same,NF-kB SEAP reporter activity,RAW-Dual [2]; [8],0.966
Cn1ncc(Cl)c1-c1cc(C(=O)NC(CN)Cc2cccc(F)c2)sc1Cl (stereo unspecified) (library stock concentration (final ~1000-fold dilution): 10 mM),NF-kB SEAP reporter activity,RAW-Dual [1]; agonist: LPS (TLR4) 0.1 ug/mL,1.53
same,NF-kB SEAP reporter activity,RAW-Dual [1]; [4],1.27
same,NF-kB SEAP reporter activity,RAW-Dual [1]; [5],1
same,NF-kB SEAP reporter activity,RAW-Dual [1]; [6],1.15
Cn1ncc(Cl)c1-c1cc(C(=O)NC(CN)Cc2cccc(F)c2)sc1Cl (stereo unspecified),NF-kB SEAP reporter activity,RAW-Dual [2]; [7],1.39
same,NF-kB SEAP reporter activity,RAW-Dual [2]; [8],1.77
CNC(=C[N+](=O)[O-])NCCSCc1csc(CN(C)C)n1 (library stock concentration (final ~1000-fold dilution): 10 mM),NF-kB SEAP reporter activity,RAW-Dual [1]; agonist: LPS (TLR4) 0.1 ug/mL,0.948
same,NF-kB SEAP reporter activity,RAW-Dual [1]; [4],1.02
same,NF-kB SEAP reporter activity,RAW-Dual [1]; [5],1.03
same,NF-kB SEAP reporter activity,RAW-Dual [1]; [6],1.08
CNC(=C[N+](=O)[O-])NCCSCc1csc(CN(C)C)n1,NF-kB SEAP reporter activity,RAW-Dual [2]; [7],0.919
same,NF-kB SEAP reporter activity,RAW-Dual [2]; [8],0.874
Cc1cc(Nc2cc(Cl)nc(Oc3ccc([N+](=O)[O-])cc3)n2)n[nH]1 (library stock concentration (final ~1000-fold dilution): 10 mM),NF-kB SEAP reporter activity,RAW-Dual [1]; agonist: LPS (TLR4) 0.1 ug/mL,3.28
same,NF-kB SEAP reporter activity,RAW-Dual [1]; [4],2.32
same,NF-kB SEAP reporter activity,RAW-Dual [1]; [5],1.82
same,NF-kB SEAP reporter activity,RAW-Dual [1]; [6],2.92
Cc1cc(Nc2cc(Cl)nc(Oc3ccc([N+](=O)[O-])cc3)n2)n[nH]1,NF-kB SEAP reporter activity,RAW-Dual [2]; [7],1.24
same,NF-kB SEAP reporter activity,RAW-Dual [2]; [8],2.16
C=CC(=O)Nc1cccc(Nc2nc(Nc3ccc(NC4CN(CCF)C4)cc3OC)ncc2C(F)(F)F)c1,NF-kB SEAP reporter activity,RAW-Dual [2]; [7],1.26
same,NF-kB SEAP reporter activity,RAW-Dual [2]; [8],1.53
C=CC(=O)Nc1cccc(Nc2nc(Nc3ccc(NC4CN(CCF)C4)cc3OC)ncc2C(F)(F)F)c1 (library stock concentration (final ~1000-fold dilution): 10 mM),NF-kB SEAP reporter activity,RAW-Dual [1]; agonist: LPS (TLR4) 0.1 ug/mL,0.561
same,NF-kB SEAP reporter activity,RAW-Dual [1]; [4],0.536
same,NF-kB SEAP reporter activity,RAW-Dual [1]; [5],0.359
same,NF-kB SEAP reporter activity,RAW-Dual [1]; [6],0.725
O=C(O)CC(O)CC(O)C=Cc1c(C2CC2)nc2ccccc2c1-c1ccc(F)cc1 (stereo unspecified) (library stock concentration (final ~1000-fold dilution): 10 mM),NF-kB SEAP reporter activity,RAW-Dual [1]; agonist: LPS (TLR4) 0.1 ug/mL,3
same,NF-kB SEAP reporter activity,RAW-Dual [1]; [4],3
same,NF-kB SEAP reporter activity,RAW-Dual [1]; [6],3.31
CS(=O)(=O)Nc1ccc([N+](=O)[O-])cc1Oc1ccccc1,NF-kB SEAP reporter activity,RAW-Dual [2]; [7],0.516
same,NF-kB SEAP reporter activity,RAW-Dual [2]; [8],1.08
CS(=O)(=O)Nc1ccc([N+](=O)[O-])cc1Oc1ccccc1 (library stock concentration (final ~1000-fold dilution): 10 mM),NF-kB SEAP reporter activity,RAW-Dual [1]; agonist: LPS (TLR4) 0.1 ug/mL,1.05
same,NF-kB SEAP reporter activity,RAW-Dual [1]; [4],0.993
same,NF-kB SEAP reporter activity,RAW-Dual [1]; [5],0.937
same,NF-kB SEAP reporter activity,RAW-Dual [1]; [6],0.873
COc1cc(NC(=O)c2ccc(-c3ccc(Cl)cc3)o2)cc(OC)c1,NF-kB SEAP reporter activity,RAW-Dual [2]; [7],0.985
same,NF-kB SEAP reporter activity,RAW-Dual [2]; [8],1.02
COc1cc(NC(=O)c2ccc(-c3ccc(Cl)cc3)o2)cc(OC)c1 (library stock concentration (final ~1000-fold dilution): 10 mM),NF-kB SEAP reporter activity,RAW-Dual [1]; agonist: LPS (TLR4) 0.1 ug/mL,1.49
same,NF-kB SEAP reporter activity,RAW-Dual [1]; [4],1.14
same,NF-kB SEAP reporter activity,RAW-Dual [1]; [5],1.21
same,NF-kB SEAP reporter activity,RAW-Dual [1]; [6],1.01
COc1cc2nccc(Oc3ccc(NC(=O)Nc4ccc(F)cc4F)c(F)c3)c2cc1OC (library stock concentration (final ~1000-fold dilution): 10 mM),NF-kB SEAP reporter activity,RAW-Dual [3]; agonist: LPS (TLR4) 0.1 ug/mL,0.806
same,NF-kB SEAP reporter activity,RAW-Dual [3]; [4],0.587
same,NF-kB SEAP reporter activity,RAW-Dual [3]; [5],0.463
same,NF-kB SEAP reporter activity,RAW-Dual [3]; [6],0.717
COc1cc2nccc(Oc3ccc(NC(=O)Nc4ccc(F)cc4F)c(F)c3)c2cc1OC,NF-kB SEAP reporter activity,"RAW-Dual [2]; cytotoxicity flag (confluency mask): cytotoxic (confluency <70% of control), agonist: Imiquimod (TLR7) […]",0.799
same,NF-kB SEAP reporter activity,"RAW-Dual [2]; cytotoxicity flag (confluency mask): cytotoxic (confluency <70% of control), agonist: MPLA (TLR4) […]",0.975
